Experiment [1] addresses T1, huFGFR3c-Fc (human, UniProt P22607 23-375).
T1 construct: also called recombinant human FGFR3c-Fc
T1 sequence: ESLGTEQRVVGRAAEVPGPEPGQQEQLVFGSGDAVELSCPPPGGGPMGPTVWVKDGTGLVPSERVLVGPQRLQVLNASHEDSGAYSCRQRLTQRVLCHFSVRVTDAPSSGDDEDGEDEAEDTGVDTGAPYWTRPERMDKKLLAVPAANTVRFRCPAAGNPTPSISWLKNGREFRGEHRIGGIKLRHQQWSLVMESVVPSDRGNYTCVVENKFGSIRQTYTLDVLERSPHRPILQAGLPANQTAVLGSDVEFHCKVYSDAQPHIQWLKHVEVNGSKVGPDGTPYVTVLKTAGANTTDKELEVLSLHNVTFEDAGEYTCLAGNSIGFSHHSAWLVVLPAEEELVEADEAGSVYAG
The experiment is described as follows: BIAcore, competition with FGF1 experiment, no FGF1; apparent KD.

In experiment [2] the target is T1, huFGFR3c-Fc. The experiment is described as follows: BIAcore, in presence of 200 nM FGF1; apparent KD.
Experiment [3] addresses T1, huFGFR3c-Fc. The experiment is described as follows: BIAcore; apparent KD.
In the next experiment the target is T2, cynoFGFR3c-Fc (cynomolgus monkey, UniProt A0A2K5V1U5 23-376).
T2 construct: also called cyFGFR3c-Fc; cyFGFR3c
T2 sequence: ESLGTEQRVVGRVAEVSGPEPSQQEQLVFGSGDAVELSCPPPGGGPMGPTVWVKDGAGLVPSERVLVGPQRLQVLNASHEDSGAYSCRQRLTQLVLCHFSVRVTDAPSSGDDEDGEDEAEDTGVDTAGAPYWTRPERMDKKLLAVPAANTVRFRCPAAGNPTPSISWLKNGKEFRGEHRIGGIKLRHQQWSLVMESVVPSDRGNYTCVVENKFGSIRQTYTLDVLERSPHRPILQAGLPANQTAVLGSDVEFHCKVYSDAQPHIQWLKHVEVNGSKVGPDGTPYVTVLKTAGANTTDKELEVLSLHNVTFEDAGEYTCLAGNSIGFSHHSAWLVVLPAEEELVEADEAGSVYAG
The experiment is described as follows: BIAcore; apparent KD.

For another experiment, the target named is T3, huFGFR3b-Fc (human).
T3 construct: also called recombinant human FGFR3b-Fc
T3 chain: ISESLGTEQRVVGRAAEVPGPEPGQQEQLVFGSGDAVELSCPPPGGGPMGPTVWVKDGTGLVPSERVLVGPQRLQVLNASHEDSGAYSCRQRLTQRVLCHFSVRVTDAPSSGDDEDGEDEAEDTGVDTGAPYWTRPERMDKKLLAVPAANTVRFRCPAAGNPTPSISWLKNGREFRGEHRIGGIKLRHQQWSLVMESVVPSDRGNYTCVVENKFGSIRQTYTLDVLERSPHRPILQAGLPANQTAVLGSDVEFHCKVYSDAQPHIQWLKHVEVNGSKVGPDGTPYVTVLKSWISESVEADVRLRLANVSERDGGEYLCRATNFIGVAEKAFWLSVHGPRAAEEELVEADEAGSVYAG
The experiment can be described thus: BIAcore; apparent KD.

Drawing on patent publication US20220249679A1 (MITSUBISHI TANABE PHARMA, published 2022), this text covers Kd for one molecule.

B1: FF40L54A5 (designed binder, not shown: small tags and cut ends)
chain: GVTLFVALYDYEVMSTTALSFHKGEKFQILSQSPHGQYWEARSLTTGETGWIPSNYVAPVDSIQ
In the case of B1, the Kd with huFGFR3c-Fc [1] was determined as 0.21 nM; with huFGFR3c-Fc [2], 0.23 nM; in the experiment with huFGFR3c-Fc [3] it was 0.17 nM; with cynoFGFR3c-Fc it was 0.16 nM; with huFGFR3b-Fc, 0.17 nM.
